Experimental data from publication PMC6212790.
The other results are listed elsewhere or left out. At the low end of the ranking, values are background and their order means little.

target: T1, GST-Rok-C97-191 (UniProt O34857); test: protein binding microarray; conditions: Rok is a gene silencer of Bacillus subtilis; high values mean tight binding; most listed sequences are background and not binding sites; double strand, one strand shown;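 also: rank score from −0.5 (least bound) to 0.5 (best bound)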
T1 sequence: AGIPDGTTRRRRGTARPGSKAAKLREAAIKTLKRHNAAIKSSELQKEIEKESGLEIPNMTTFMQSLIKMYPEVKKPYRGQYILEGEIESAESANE

| Sequence | binding signal |
| --- | --- |
| ACTTAGCA | 0.123 E-score |
| AACGCTTG | -0.182 E-score |
| CCGTCTCG | -0.252 E-score |
| ATCTACGC | 0.224 E-score |
| CCTGCAGG | -0.213 E-score |
| TCTCGTCA | -0.0851 E-score |
| ACCATAGC | -0.0609 E-score |
| CCCCGCCA | -0.367 E-score |
| ACCAATAA | 0.18 E-score |
| ACTGACCG | 0.269 E-score |
| AATTGACT | 0.167 E-score |
| CGGCTAGC | -0.191 E-score |
| AAACACTC | 0.0248 E-score |
| AATCCGCA | -0.0334 E-score |
| AAGAATAG | 0.118 E-score |
| ACGAATCT | 0.143 E-score |
| AAGATTAC | 0.132 E-score |
| GGCTGTTA | 0.0876 E-score |
| TCTGCGAA | -0.101 E-score |
| AAAATTGG | 0.157 E-score |
| ACACATGT | 0.0743 E-score |
| CGAAGCCG | -0.361 E-score |
| GCAGAGAA | -0.195 E-score |
| GCCGTTAA | -0.0096 E-score |
| CAAGTCCG | -0.159 E-score |

| Sequence | binding signal |
| --- | --- |
| CGACCATA | 0.0423 E-score |
| GAAAAAAC | 0.0645 E-score |
| GCCAACGA | -0.104 E-score |
| TAGCCCTA | 0.0919 E-score |
| GAATTAAA | 0.168 E-score |
| AGAGCTAT | 0.278 E-score |
| CTTAGTTA | 0.189 E-score |
| AGCTAGCC | 0.0448 E-score |
| AGGGCATA | -0.0565 E-score |
| AAATTAGA | 0.262 E-score |
| GAAGTGGA | -0.00561 E-score |
| ATATGGCG | -0.0489 E-score |
| AAAACGTC | -0.0674 E-score |
| TAGCATAA | 0.224 E-score |
| CTTAATTC | 0.0837 E-score |
| GAATACCC | -0.0946 E-score |
| AATCGTCA | -0.0288 E-score |
| GTTACTAA | 0.272 E-score |
| GGAGACGA | -0.102 E-score |
| CCGGAGAA | -0.0232 E-score |
| GCTGATCA | 0.0182 E-score |
| ATGCAGAG | -0.0691 E-score |
| GACGAACA | 0.0885 E-score |
| TATCTGGA | 0.0371 E-score |
| AGTGGGTC | 0.0211 E-score |

| Sequence | binding signal |
| --- | --- |
| AAGAGATA | 0.282 E-score |
| CGCTGACG | -0.213 E-score |
| ACGCTCCG | -0.0476 E-score |
| CATCGAGG | 0.00314 E-score |
| AGGGGCCA | -0.201 E-score |
| AACACAAA | 0.135 E-score |
| AAGGCATT | -0.0138 E-score |
| GAACATCC | -0.102 E-score |
| CCTTCTCG | -0.176 E-score |
| GGCGAGAA | 0.0502 E-score |
| ACTTGTAT | 0.216 E-score |
| CGGCAACC | -0.339 E-score |
| AGCCCCAG | -0.229 E-score |
| GAAGTACA | 0.237 E-score |
| CCTAAGCA | -0.113 E-score |
| GATCAGTA | 0.168 E-score |
| CCGTATAA | 0.041 E-score |
| CTTACTCC | -0.261 E-score |
| CTAAGTTA | 0.291 E-score |
| CGTTGAGC | 0.142 E-score |
| AATGCTAA | 0.19 E-score |
| CAACAGTG | 0.0183 E-score |
| AATTTCGC | 0.151 E-score |
| TAGCACGA | 0.153 E-score |
| AGGGAACC | -0.181 E-score |

| Sequence | binding signal |
| --- | --- |
| AGAAGGAA | -0.0343 E-score |
| AAAGATCA | -0.0229 E-score |
| CAAGTAGC | -0.0849 E-score |
| GACTTTGA | -0.0997 E-score |
| CTTTACGC | 0.0406 E-score |
| CGCCAAGA | -0.165 E-score |
| CGTGTGAG | -0.0536 E-score |
| AATCTCTG | 0.144 E-score |
| AAACTTTG | 0.0736 E-score |
| CGTTTTGC | 0.0551 E-score |
| CATCGTAC | -0.00455 E-score |
| GATTATGA | 0.0489 E-score |
| CCCGCACC | -0.122 E-score |
| AGTAGTAA | 0.404 E-score |
| AAACCCAG | 0.143 E-score |
| CGACACCG | -0.204 E-score |
| ATGGGGCG | -0.0966 E-score |
| AGACTATG | 0.121 E-score |
| TGCGGACA | -0.000971 E-score |
| CCCATCCG | -0.267 E-score |
| CGGACAAA | 0.0138 E-score |
| CAAACTCA | -0.0752 E-score |
| ACCGTCAA | -0.0488 E-score |
| TCGGTCCA | -0.251 E-score |
| ATCCGTCG | -0.0336 E-score |

| Sequence | binding signal |
| --- | --- |
| GCGTGGAA | -0.0222 E-score |
| CGAATGTC | -0.015 E-score |
| CCGATAAC | 0.207 E-score |
| GAGCGCTC | -0.173 E-score |
| ATGTAGTA | 0.407 E-score |
| AGTAACCA | 0.11 E-score |
| AAGCTGAA | -0.00744 E-score |
| CGATGTAC | 0.206 E-score |
| CTAATAGA | 0.252 E-score |
| CCTTTGCC | -0.273 E-score |
| ACCAGGTC | 0.0158 E-score |
| AGGGCCAA | -0.229 E-score |
| CTCTAAGA | -0.196 E-score |
| TAGGTTAA | 0.101 E-score |
| CAAGAGTA | 0.0613 E-score |
| CTACGCAA | 0.0577 E-score |
| AGTCTGTC | -0.26 E-score |
| CGTGTGTA | -0.0357 E-score |
| AGCGCTTA | 0.00703 E-score |
| GGCCGTCA | -0.0566 E-score |
| AACTGGAT | 0.115 E-score |
| AAGAAATG | -0.0471 E-score |
| ACGTAGGA | 0.119 E-score |
| GAACATTC | 0.088 E-score |
| GTTTAGGA | -0.133 E-score |

| Sequence | binding signal |
| --- | --- |
| CCCTCCGC | -0.411 E-score |
| CTACTTTC | 0.275 E-score |
| GGATCACA | -0.0542 E-score |
| CCGGGGCA | -0.354 E-score |
| CACTCCGG | -0.137 E-score |
| GAGTGATA | 0.182 E-score |
| AGCAGTTG | 0.19 E-score |
| AACCCTTG | -0.228 E-score |
| TACCCAGA | 0.0275 E-score |
| ACCAACCT | 0.0575 E-score |
| CTTACTAA | 0.203 E-score |
| CAAAGAAC | 0.232 E-score |
| AAAGAGTA | 0.0872 E-score |
| ACCTTAGT | -0.0308 E-score |
| CGATGAAC | -0.153 E-score |
| GTGAAGGA | -0.211 E-score |
| AGAGGCGC | -0.215 E-score |
| AAAGTGGT | 0.149 E-score |
| TCGACTAA | 0.0796 E-score |
| AGTTCGTG | -0.134 E-score |
| GAATCACA | 0.11 E-score |
| CCAATTAC | 0.0758 E-score |
| AGACAGAT | -0.0299 E-score |
| AAACTAGA | 0.354 E-score |
| GATGGAGA | -0.171 E-score |

| Sequence | binding signal |
| --- | --- |
| GACAAAGC | -0.151 E-score |
| CGAGCGAG | -0.272 E-score |
| TCTTGAAA | -0.143 E-score |
| CGGACGAG | -0.278 E-score |
| AACCCACT | 0.0905 E-score |
| ACTCGCCT | -0.0993 E-score |
| ATGTGATC | 0.133 E-score |
| ACACCATG | 0.0858 E-score |
| CCGGACCC | -0.169 E-score |
| GCAACGGC | -0.222 E-score |
| GACCACGA | -0.251 E-score |
| ACCGTAAA | 0.211 E-score |
| GGCTCAAC | -0.147 E-score |
| CACTCAAG | -0.138 E-score |
| GCGAGGGA | -0.39 E-score |
| ACTCAGGA | -0.0975 E-score |
| TAAACCAA | 0.0919 E-score |
| AAGCCGGA | -0.0857 E-score |
| CTCGTGGA | -0.21 E-score |
| CAGGGAGC | -0.193 E-score |
| TAGTACCA | 0.25 E-score |
| AAGTTTGA | -0.0338 E-score |
